Test results: the supplement of paper PMC8047034
Structures can show the parent of a compound that is named as a salt. The list shows a part of the results. Repeats are few or missing, and single values can be far off.

Tests used:
OVCAR4 = assay: log2 surviving fraction (library drug vs vehicle, or drug + carboplatin vs carboplatin alone; relative to plate median); ovarian cancer lines: OVCAR4 is platinum-sensitive and Ov4Carbo platinum-resistant; higher = more cell survival; details: library drug concentration 10 µM, 7 days
Ov4Carbo = assay: as above; details: library drug concentration 10 µM, 7 days

| SMILES | log2 surviving fraction (OVCAR4; carboplatin co-treatment 0 µM) | log2 surviving fraction (OVCAR4; carboplatin co-treatment 5 µM) | log2 surviving fraction (Ov4Carbo; carboplatin co-treatment 0 µM) | log2 surviving fraction (Ov4Carbo; carboplatin co-treatment 5 µM) |
| --- | --- | --- | --- | --- |
| COC(=O)[C@@H]1CC2=CC(=O)CC[C@]2(C)[C@@]23O[C@@H]2C[C@@]2(C)[C@@H](CC[C@@]24CCC(=O)O4)[C@H]13 [Eplerenone] | 1.01 | 0.91 | 0.681 | 0.735 |
| OC[C@H]1OC(O)[C@H](O)[C@@H](O)[C@@H]1O (stereo partly drawn) [Dextrose (D-glucose)] | 0.421 | 0.856 | 0.712 | 0.531 |
| CCN[C@@H]1C[C@H](N)[C@@H](O[C@H]2OC(CN)=CC[C@H]2N)[C@H](O)[C@H]1O[C@H]1OC[C@](C)(O)[C@H](NC)[C@H]1O [Netilmicin Sulfate] | -0.38 | -0.0411 | 0.257 | -0.986 |
| CCOC(=O)C1=C(COCCN)NC(C)=C(C(=O)OC)C1c1ccccc1Cl (stereo not given) [Amlodipine (Norvasc)] | -0.874 | -1.7 | -0.993 | -3 |
| O=c1[nH]c2ccccc2n1C1CCN(CCCC(c2ccc(F)cc2)c2ccc(F)cc2)CC1 [Pimozide] | -1.49 | -1.38 | -3.33 | -2.22 |
| CCc1ccc(CCOc2ccc(CC3SC(=O)NC3=O)cc2)nc1 (stereo not given) [Pioglitazone (Actos)] | -0.185 | -0.307 | -0.0516 | -0.184 |
| CCOCC(O)COc1ccc(NC(=O)CC[S+](C)C)cc1 (stereo not given) [Suplatast tosylate] | 0.00699 | 0.3 | -0.00809 | -0.374 |
| CN(C)CCc1c[nH]c2ccc(C[C@H]3COC(=O)N3)cc12 [Zolmitriptan (Zomig)] | -2.68 | -0.235 | 0.372 | 0.467 |
| COc1ccccc1OCC(O)CN1CCN(CC(=O)Nc2c(C)cccc2C)CC1 (stereo not given) [Ranolazine (Ranexa)] | 0.00813 | 0.811 | 0.955 | 0.502 |
| O=C(O)COCCN1CCN(C(c2ccccc2)c2ccc(Cl)cc2)CC1 (stereo not given) [Cetirizine Dihydrochloride] | 1.21 | 0.574 | 0.12 | -0.27 |
| O=C(O)c1cn(-c2ccc(F)cc2)c2cc(N3CCNCC3)c(F)cc2c1=O [Sarafloxacin HCl] | -0.179 | -0.77 | 1.29 | -9.66 |
| O=C(Nc1c(Cl)cncc1Cl)c1ccc(OC(F)F)c(OCC2CC2)c1 [Roflumilast (Daxas)] | -0.266 | -0.358 | -0.664 | 0.0281 |
| C[C@H](NC(=O)Cc1cc(F)cc(F)c1)C(=O)N[C@H](C(=O)OC(C)(C)C)c1ccccc1 | -0.576 | -1.04 | -0.681 | -1.34 |
| CCn1cc(C(=O)O)c(=O)c2cnc(N3CCCC3)nc21 [Piromidic Acid] | 0.149 | 0.176 | -0.168 | 0.278 |
| CCN(CC)CCCC(C)Nc1ccnc2cc(Cl)ccc12 (stereo not given) [Chloroquine Phosphate] | -0.108 | -0.0461 | -0.713 | -0.0576 |
| CC(=O)N[C@@H](CS)C(=O)O [Acetylcysteine] | -4.67 | 0.575 | 0.608 | 0.411 |
| N=C(N)N [Guanidine HCl] | -0.19 | 0.104 | -0.759 | -1.41 |
| CC1=C(C(=O)O)N2C(=O)[C@@H](NC(=O)[C@H](N)c3ccccc3)[C@H]2SC1 [Cephalexin (Cefalexin)] | 1.48 | 0.732 | 0.593 | 0.441 |
| CCC(CC)[C@H](NC(C)=O)[C@@H]1[C@H](O)[C@@H](C(=O)O)C[C@H]1NC(=N)N [Peramivir Trihydrate] | -0.939 | -0.322 | 0.0236 | -0.397 |
| CCn1cc(C(=O)O)c(=O)c2cc(F)c(N3CCNCC3)cc21 [Norfloxacin (Norxacin)] | 0.31 | 0.235 | -0.38 | 0.0942 |
| CCCCC(=O)O[C@]1(C(=O)CO)[C@@H](C)C[C@H]2[C@@H]3CCC4=CC(=O)C=C[C@]4(C)[C@@]3(F)[C@@H](O)C[C@@]21C [Betamethasone valerate (Betnovate)] | 0.556 | 0.511 | 1.34 | 0.934 |
| COc1cc2c(cc1OC)[C@@]13CCN4CC5=CCO[C@H]6CC(=O)N2[C@H]1[C@H]6[C@H]5C[C@H]43 [Brucine] | 0.0846 | -8.05 | 0.216 | 1.4 |
| Cc1c(N(C)C)c(=O)n(-c2ccccc2)n1C [Amidopyrine] | -0.399 | -0.663 | 0.349 | 0.335 |
| C=CC1=C(C(=O)O)N2C(=O)[C@@H](NC(=O)/C(=N\O)c3csc(N)n3)[C@H]2SC1 [Cefdinir (Omnicef)] | 1.02 | -0.0956 | 1.04 | 0.000482 |
| CCn1cc(C(=O)O)c(=O)c2cc(F)c(N3CCN(C)CC3)cc21 [Pefloxacin mesylate] | 0.514 | 0.847 | 0.392 | -1.53 |
